The values that follow come from the antibiotic and cytotoxicity screens of Wong et al. (2023).

The structures appear in SMILES notation. The list shows a part of the results.

This experiment concerns HSkMC (human skeletal muscle cells). The experiment in a line: cytotoxicity call (relative viability < 0.9). To be noted: 10 µM.
`Cc1ccc(S(=O)(=O)N[C@H](C)C(=O)O)cc1`: the cytotoxicity call is “inactive”. For `O=c1c(-c2ccc(O)cc2)coc2cc(O)cc(O)c12` the value was “inactive”; for `C[C@H](CO)N1C[C@H](C)[C@@H](CN(C)Cc2ccc(Cl)c(Cl)c2)Oc2ccc(NC(=O)Cn3cnnn3)cc2C1=O`, “inactive”; for `C[C@H](CO)N1C[C@H](C)[C@@H](CN(C)Cc2ccc(Oc3ccccc3)cc2)Oc2ccc(NC(=O)Cc3ccccc3)cc2C1=O`, “inactive”. As for `C[C@H]1CN([C@@H](C)CO)C(=O)Cc2cc(NS(=O)(=O)c3ccc(F)cc3)ccc2O[C@H]1CN(C)CC1CC1`, the cytotoxicity call is “inactive”. On to `Cc1ccc2c(Cl)cc(Cl)c(O)c2n1`, for which the cytotoxicity call was “inactive”.

Regarding `C[C@H](O)C#Cc1ccc2c(c1)O[C@@H](CN(C)C(=O)Nc1ccccc1)[C@H](C)CN([C@@H](C)CO)S2(=O)=O`, the cytotoxicity call was “inactive”. With `Cc1onc(C(=O)O)c1[N+](=O)[O-]`, the cytotoxicity call is “inactive”.

For the compound `C[C@H]1CN([C@@H](C)CO)C(=O)c2cc(C3=CCCCC3)cnc2O[C@@H]1CN(C)S(=O)(=O)c1cn(C)cn1`, the cytotoxicity call is “inactive”.

On to `CC(C)C[C@@H]1NC(=O)[C@@]23C(=O)N[C@@H](Cc4ccccc4)[C@H]2[C@H](C)[C@@]2(C)O[C@H]2[C@@H]3/C=C/C/C=C\CNC(=O)[C@@H](C)NC1=O`, for which the cytotoxicity call was “inactive”. In the case of `C[C@@H]1CN([C@@H](C)CO)C(=O)c2cccc(NC(=O)c3cnccn3)c2O[C@@H]1CN(C)Cc1ccc(C(=O)O)cc1`, the cytotoxicity call is “inactive”.

Turning to `C=CCNC1=C2C[C@@H](C)C[C@H](OC)[C@H](O)[C@@H](C)/C=C(\C)[C@H](OC(N)=O)[C@@H](OC)/C=C\C=C(/C)C(=O)NC(=CC1=O)C2=O`, the cytotoxicity call was “active”.
